Experimental data from PubChem BioAssay AID1745845 (National Center for Advancing Translational Sciences (NCATS), 2022).
Values joined by “and” are separate entries in the source; they are usually repeats but may differ in a detail not shown here. Equal entries are not always repeated. Screen size: about 360,000 compounds; about 2,600 (0.72%) were called active. Inconclusive means that the source gave no clear call. Such entries were picked first, then a sample of the others. Calls follow the shape of the dose curve; as a rule, active = well fitted inhibition curve with a large enough effect; inconclusive = small, poorly fitted or top-dose-only effect; inactive = no such curve, though single readings can be large or run the other way. Potencies beside an inconclusive call are fits to weak or partial responses and may not hold up.

Assay: Primary qHTS for Inhibitors of ATXN expression; also: nearly all actives have a fitted effect of over 55% in size
Settings: HEK-293 ATXN2-luciferase reporter, luminescence, 24 h; activity change, negative = inhibition: at 57 µM (top of the series)
How it was run: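 ATXN2-luciferase reporter cells (luciferase flanked by upstream and downstream ATXN2 gene portions) were treated 24 h at 37 °C with compounds at up to 57 uM. SteadyGlo luminescence gave expression; GF-AFC fluorescence gave viability.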
% is scaled to controls: 0 for no effect and ±100 for the full control effect; potency is read from the fitted curve at half-maximal effect; tags tell the direction and shape of the fitted curve.

| SMILES | activity change, negative = inhibition | Potency |
| --- | --- | --- |
| CCNC(=O)C1CCCN(c2ncnc3onc(C)c23)C1 (stereo unspecified) | inactive: -4.8% | – |
| Cc1ccc(NC(=O)c2nnn(Cc3cccc(C(F)(F)F)c3)c2N)c(C)c1 | – | inconclusive: 0.891 µM [inhibitor, full curve] |
| Cc1cc(C)c2nc(C(F)(F)F)c(C#N)c(N)c2c1 | inactive: 17.4% | – |
| CCOC(=O)/C=C1\CN(Cc2cc(OC)c(OC)c(OC)c2)S(=O)(=O)c2ccc(C(F)(F)F)cc21 | – | inconclusive: 22.4 µM [inhibitor, partial curve, poor fit] |
| COc1ccc(CNC(=O)CSc2nc(-c3ccccc3)cc(-c3cccs3)c2C#N)cc1 | – | inconclusive: 15.8 µM [inhibitor, partial curve] |
| CCCCN(CCCNC(=O)C1CCN(C(=O)c2cc3sccc3n2C)CC1)Cc1ccccc1 | – | inconclusive: 28.2 µM [inhibitor, single point] |
| CCOc1ccc2[nH]c3c(NCCc4ccc(OC)c(OC)c4)ncnc3c2c1 | – | active: 17.8 µM |
| Cn1c(-c2ccccc2)cc2c3no[n+]([O-])c3ccc21 | – | inconclusive: 11.2 µM [inhibitor, partial curve] |
| CCCCCCSc1ccc([C@@H]2[C@@H]3C(=O)N(C)C(=O)[C@@H]3[C@]3(C(=O)OC)CCCCN23)cc1 | – | inconclusive: 39.8 µM [inhibitor, single point] |
| CCOC(=O)C1CCN(c2cc(C)nc3c(-c4ccccc4OC)c(C)nn23)CC1 | – | inconclusive: 12.6 µM [inhibitor, partial curve, poor fit] |
| Cc1cccc(N2CCN(C(=O)C3CCC(CNS(=O)(=O)c4cccs4)CC3)CC2)c1C (stereo unspecified) | – | inconclusive: 15.8 µM [inhibitor, partial curve, poor fit] |
| Cn1cccc1/C=N/n1c(-c2ccc(C(C)(C)C)cc2)n[nH]c1=S | inactive: 2.36% | – |
| CC(C)c1cc(C(=O)N2CCCC(CCC(=O)N3CCN(c4ccccn4)CC3)C2)no1 (stereo unspecified) | – | inconclusive: 20 µM [inhibitor, partial curve, poor fit] |
| CCCCC(=O)N(C)c1c(CC)nc2c(OCCOc3ccc(F)cc3)cccn12 | – | inconclusive: 39.8 µM [inhibitor, single point] |
| NC(N)=N/N=C/c1ccc(OCc2ccc(Cl)cc2)cc1 | – | inconclusive: 17.8 µM [inhibitor, single point] |
| Cc1cc(NC(=O)c2cc(-c3ccc(Br)cc3)on2)nn1Cc1ccc(Cl)cc1 | inactive: -19.4% | – |
| CCc1ccc(CNC(=O)C2CCN(c3nnc(C)c4c(C)n(-c5ccc(C)cc5)nc34)CC2)cc1 | – | inconclusive: 15.8 µM [inhibitor, partial curve, poor fit] and active: 31.6 µM |
| CCCCCCCCNCCS(=O)(=O)NC1CCCCC1 | – | inconclusive: 35.5 µM [inhibitor, single point] |
| O=C(N/N=C/c1ccc(-c2cccc([N+](=O)[O-])c2)o1)[C@H]1C[C@@H]1c1ccccc1 | inactive: -3.94% | – |
| Cc1ccc(C(=O)Nc2ccc(S(=O)(=O)N3CCc4ccccc43)cc2)o1 | inactive: 3.06% | – |
| COc1ccc(OCC(=O)N/N=C/c2cccc3cccnc23)cc1 | – | inconclusive: 20 µM [inhibitor, partial curve] |

| SMILES | activity change, negative = inhibition | Potency |
| --- | --- | --- |
| O=C(Nc1ncccc1O)c1cc2ccccc2o1 | – | inconclusive: 20 µM [inhibitor, single point] |
| CCCCCCCCC/C(=N\O)c1ccccn1 | – | inconclusive: 39.8 µM [inhibitor, single point] |
| Cc1ccc(CNc2nc3ccccc3s2)s1 | – | inconclusive: 39.8 µM [inhibitor, single point] |
| Cn1cnc([N+](=O)[O-])c1S(=O)(=O)Oc1ccc(Cl)cc1 | – | inconclusive: 35.5 µM [inhibitor, single point] |
| CCC(C=C[C@@H]1OC(=O)C=C[C@H]1C)=C[C@H](C)CC=CC(C)=C[C@@H](C)C(=O)[C@@H](C)[C@H](O)[C@@H](C)CC(C)=CC(=O)O | – | active: 0.128 µM |
| CN(C)C=NC(=O)c1ccc(N2CCN(c3ncc(C(F)(F)F)cc3Cl)CC2)cc1 | – | inconclusive: 20 µM [inhibitor, partial curve, poor fit] |
| CS(=O)(=O)N1CCN(c2ccc(Cl)cc2[N+](=O)[O-])CC1 | inactive: -7.72% | – |
| COc1ccccc1[C@H]1C(c2cccc(Cl)c2)=NN(c2ccccc2)[C@@H]1CO | – | inconclusive: 39.8 µM [inhibitor, single point] |
| CCOC(=O)C1=CCN(S(=O)(=O)c2ccccc2F)C1c1ccc(Cl)cc1 (stereo unspecified) | – | inconclusive: 25.1 µM [inhibitor, partial curve, poor fit] |
| O=C(N/N=C(\Cc1ncc[nH]1)c1ccccc1)c1cccnc1 | – | inconclusive: 15 µM [inhibitor, partial curve, poor fit] |
| COc1ccc(CCC(=O)NNC(=O)c2ccccn2)cc1OC | – | inconclusive: 12.6 µM [inhibitor, partial curve, poor fit] |
| CCCCCC(=O)N1C[C@H](n2cc(-c3ccc(F)cc3)nn2)[C@@H](O)C[C@@H]1c1ccc(Cl)cc1 | – | inconclusive: 39.8 µM [inhibitor, single point] |
| CCOc1ccc(C(Nc2cccnc2)c2cc(Cl)c3cccnc3c2O)cc1 (stereo unspecified) | – | inconclusive: 31.6 µM [inhibitor, single point] |
| CCOC(=O)c1c(NC(=O)CSc2nc3ccc(C)cc3[nH]2)sc2c1CC(C)(C)NC2(C)C | – | inconclusive: 25.1 µM [inhibitor, single point] |
| COC(=O)c1ccccc1COc1cccn2c(N(C)Cc3cccs3)c(C)nc12 | – | active: 17.8 µM |
| CC(C)(N)C(=O)N[C@H](COCc1ccccc1)C(=O)N1CCC2(CC1)CN(S(C)(=O)=O)c1ccccc12 | – | inconclusive: 43.2 µM [inhibitor, partial curve, poor fit] |
| CC[C@H](C)Cc1cn([C@@H](CCCCNC(=O)OC(C)(C)C)C(=O)NCCCCCCCCCCC(=O)N2CCN(C(=O)OC(C)(C)C)CC2)nn1 | – | inconclusive: 14.1 µM [inhibitor, partial curve] |
| CC(=O)NC(c1cccc([N+](=O)[O-])c1)c1ccc2cccnc2c1O (stereo unspecified) | – | active: 3.16 µM |
| CCc1cc(C(=O)N/N=C/c2ccc(O)cc2O)c2ccccc2n1 | – | inconclusive: 3.55 µM [inhibitor, partial curve] |
| Cc1cccc(C)c1-n1ncc(C(=O)N2CCN(c3ncccn3)CC2)c1C1CCN(C(=O)OC(C)(C)C)CC1 | inactive: 12.3% | – |
| CN(C)S(=O)(=O)c1ccc(C(=O)Nc2cc3c(cc2C(=O)O)OCCCO3)cc1 | – | inconclusive: 42.3 µM [inhibitor, single point] |

| SMILES | activity change, negative = inhibition | Potency |
| --- | --- | --- |
| Cc1c(C(=O)N2CCCCC2)oc2ccc(S(=O)(=O)N3CC(C)CC(C)C3)cc12 (stereo unspecified) | – | inconclusive: 17.8 µM [inhibitor, partial curve, poor fit] |
| CCCN1C/C(=C/c2ccc3c(c2)OCO3)C(=O)/C(=C/c2ccc3c(c2)OCO3)C1 | – | inconclusive: 28.2 µM [inhibitor, single point] |
| CCN(CCCNC(=O)c1cc2c(=O)n(CC)c3ccccc3c2s1)Cc1ccccc1 | – | inconclusive: 25.1 µM [inhibitor, single point] |
| COc1cccc(-c2nc3c(C#N)c[nH]n3c2NC2CCCC2)c1OC | inactive: -7.87% | – |
| COc1cccc(-c2nn(-c3ccccc3)cc2C(=O)n2nnc3ccccc32)c1 | – | inconclusive: 39.8 µM [inhibitor, single point] |
| CNc1nc(Cl)c(SC)c(N2CCOCC2)n1 | – | inconclusive: 20 µM [inhibitor, partial curve, poor fit] |
| CS(=O)(=O)N(CCc1ccccc1)CC(=O)Nc1ccc(OCc2ccccc2)cc1 | – | inconclusive: 22.4 µM [inhibitor, partial curve, poor fit] |
| COc1cc(-c2cc(NC=O)c3ncc(-c4ccccc4)n3c2)cc(OC)c1OC | – | inconclusive: 28.2 µM [inhibitor, single point] |
| Cc1cc(OCC(=O)N2CCC(c3nc4ccccc4s3)CC2)ccc1Cl | – | inconclusive: 28.2 µM [inhibitor, single point] |
| COc1ccccc1NC(=O)C1=C(C)Nc2nc3ccccc3n2C1c1ccccc1Cl (stereo unspecified) | inactive: 4.24% | – |
| CC1=C(C(=O)N(C(C)C)C(C)C)CC(CC(=O)NCCCCc2ccccc2)C(=O)N1Cc1ccc(C(C)(C)C)cc1 (stereo unspecified) | – | inconclusive: 35.5 µM [inhibitor, single point] |
| CCOC(=O)c1c(NC(=O)CSc2nnc(CNc3ccc(F)cc3)o2)sc(C(C)=O)c1C | inactive: -2% | – |
| Cc1cc(Nc2nc3ccccc3nc2Cl)n(-c2ccc([N+](=O)[O-])cc2)n1 | – | inconclusive: 35.5 µM [inhibitor, single point] |
| O=C(Nc1ccnn1C1CCNCC1)c1ccc2c(c1)OCO2 | inactive: -5.38% | – |
| C=CCC[C@@H](Cc1ccc(F)cc1)C(=O)OC[C@@H](Cc1ccccc1)NC(=O)[C@H](CC=C)CC(=O)NCCO | – | inconclusive: 25.1 µM [inhibitor, single point] |
| COc1ccc(Nc2cc(Cl)nc(N)n2)cc1OC | inactive: 5.45% | – |
| C=C(C)COc1ccc(-c2[nH]ncc2Oc2ccccc2OCC)c(O)c1 | – | inconclusive: 39.8 µM [inhibitor, partial curve, poor fit] |
| CC(=O)N1CCc2c(sc3c2c(=O)n(-c2ccccc2Cl)c(=O)n3Cc2cccc(C)c2)C1 | – | inconclusive: 31.6 µM [inhibitor, partial curve, poor fit] |
| O=C(Cn1c(=O)[nH]c2ccccc2c1=O)N1CCN(c2cccc(Cl)c2)CC1 | inactive: -17.4% | – |
